Source: the RNAGym collection of RNA variant scans (doi:10.7554/elife.90254)
Read counts are not given, so values of variants with three or more changes are uncertain.

B1: LINE1-mini (parent)
chain: GGCAGAGCUCAACACAGCGUGGCAAAGUGGCUGUGGCUAGACUGCC

Variants of: B1
Assay: self-cleavage, relative activity (ratio to wild type); higher = more cleavage; in vitro, sequencing; the parent is a self-cleaving ribozyme

Row | Variant | self-cleavage
1 | GGCAGAUCUCAACACAGCGUGGCAAAGUGGCUGUGGAUCGACUGAC [G7U C37A A39C C45A] | 0.13
2 | GGAAGUGGUCAACACAGCGUGACAAAGUGGCUGUGGCUAGACUACC [C3A A6U C8G G22A G44A] | 0
3 | GGCAGAUCUCAACACAGCGCGGCAAAGUGGCUCUGGCUAGACUGCC [G7U U20C G33C] | 0.09
4 | GGCAGAGCUUAACACAGCGUGGCAAUGUGGCUGUGUCUAGACUGCC [C10U A26U G36U] | 0.02
5 | GGCAGAGCGCAACACAGCGUGUCAAAGUGGCUGAGGCUAGACUGCU [U9G G22U U34A C46U] | 0.12
6 | GGCAGAGUUCACCACAGCGUGGCAAAGUGGCUGAGUCUAAACUGCC [C8U A12C U34A G36U G40A] | 0.01
7 | GGCAGAGCUCAACACAGAGUCGCAGAGUAGCUGGGGCUAGACUGCC [C18A G21C A25G G29A U34G] | 0.03
8 | UGCAGAGCUCAACACAGAGUGGCAACGUGGCUAUGGCUAGACUGCC [G1U C18A A26C G33A] | 0
9 | GGCAGAGCUCAACUCAGCGUUGCAAAGUGGCUGUUGCUAGACUGCC [A14U G21U G35U] | 0
10 | GGCAGAGCCCAACACAGCGUGACAAAUUGGCUGUGGCUAGACUGCC [U9C G22A G27U] | 0.06
11 | AGCAGAUCUCAACAAAGCGUGGCAAAGUGGCUGUGGAUAGACUGCC [G1A G7U C15A C37A] | 0.35
12 | UGCAGAGCUCACCACAGCGUGGCAAAGUGGCUGUGCCUAGACUGCC [G1U A12C G36C] | 0.01
13 | GCCUGAGCUCAACACAACGUGGCAAACUGGCUGUGGCUACACUGCC [G2C A4U G17A G27C G40C] | 0.03
14 | GGCAGAGCUCAACACAGCGUGACGUAGUGUCUGUGGCUAGACUGCC [G22A A24G A25U G30U] | 0.42
15 | CGCAGAGCUCAACACAGCAUGGGAAAGUGGCUGUGGCUAGACCGCC [G1C G19A C23G U43C] | 0.05
16 | CGCCGAUCUCAACACAGCGUGGCAAAGUGGCUGUGGCUAGCCUGCC [G1C A4C G7U A41C] | 0.16
17 | GCCGGAGCUCAACACAGCGUGGCAAAUUGGCUAUUGGUAGACUGCA [G2C A4G G27U G33A G35U C37G C46A] | 0.02
18 | GGAAGAGCUCAACAAAGCGUGGCAAAGUGGCUGUGUCUGGACUGCC [C3A C15A G36U A39G] | 0.39
19 | UGCAGAGCUCAUCACAGCGUGGCAAAGUGGCUGUGGCAAGACUGCC [G1U A12U U38A] | 0.05

Row | Variant | self-cleavage
20 | GGCAGAGCUCAACACAACGUGGCCAAGUGGCUGUGCAUAGACUGCC [G17A A24C G36C C37A] | 0.02
21 | GGCAGAGCUCAACAAACCGUGGCAAAGUGGCUGUGUCUAGACUGCC [C15A G17C G36U] | 0.09
22 | GGCAGAGCUCAACACAGCGUGGCAAAGUGGCUCUCGCUAGACCGCC [G33C G35C U43C] | 0.04
23 | GGCAGAGCUCAACACAGCGUAGCAAACUGGCUGUGGCUAGACUGAC [G21A G27C C45A] | 1.33
24 | GGCUGAGCUAAACUCAGCGCGGCAAAGUGGCUGUGGCUAGACUGCC [A4U C10A A14U U20C] | 0.01
25 | GGCGGAGCUAAACACAGAGUGGCAAAGUGGCCGUGGCUAGUCUGCC [A4G C10A C18A U32C A41U] | 0
26 | GGCAGAGAUCAACACAGAGUGGCAAAGUUGCUGUGGCUAGACUGCC [C8A C18A G29U] | 0.14
27 | GGCAGCGCUCAAUACAGCGUGGCAAAGUGGGUGUGGCGAGACUGCC [A6C C13U C31G U38G] | 0.18
28 | GGCAUAGCUAAAUACAGCGUGGCAAAGUGGCUGUGGUUAGACUGCC [G5U C10A C13U C37U] | 0.02
29 | GGCAGAGCUCCACACAGCUUGGCAAAGUGGCUGUGGGUAGACUGCC [A11C G19U C37G] | 0
30 | GGCAUAGCUCAACACAGCGUGGCAAAUUGGCUGUGACUAGAAAGCC [G5U G27U G36A C42A U43A] | 0.16
31 | GACAGAGCGCAACACAUCGUGGCAAAGUGGCUGUGGCUAGACUGCC [G2A U9G G17U] | 0.24
32 | GGGAGAUUUCAUCACAGCGUGGCAAAAUGGCUGUGGCUAGACUUCC [C3G G7U C8U A12U G27A G44U] | 0.55
33 | GGGAGAGCUCAACACAGCGUGGCACUGUGGCUGUGGCUAGGCUGCC [C3G A25C A26U A41G] | 0.03
34 | GGCAGAGCUCAACACAGCGUGGCAAAAUGGCUGUGGCUAGGCAGCC [G27A A41G U43A] | 0.07
35 | GACAGAACGCAACACAGCGUGGCAAAGUGGCUGUGGCCAGACUGCC [G2A G7A U9G U38C] | 0.11
36 | GGCAGAGCUCCCCGCUGCGGGGUAAAGUGGAUGUGGCUAGACUGCC [A11C A12C A14G A16U U20G C23U C31A] | 0.01
37 | GGCACACCUCAACACAGCGUGGCAAAGUGGCGGUGCCUAGACUGCC [G5C G7C U32G G36C] | 0.01
38 | GGCAGAGCUAAGCACAACGUGGCAAAGUGGCUGUGGCUAGACUGCC [C10A A12G G17A] | 0.02

Row | Variant | self-cleavage
39 | GGCAGACCUCAACAAAGCGUGGCAAAGUGGCUCUGGCUGGACUGCC [G7C C15A G33C A39G] | 0.05
40 | GGCAAAGCUCAACUCAGCGCGGCAAAGUGGCUGUGGCUAGACUGCC [G5A A14U U20C] | 0.71
41 | GGCAGAGCCCAACAUAGCGUUGCAAAGUGGCUGUGGCUAGAUUGCA [U9C C15U G21U C42U C46A] | 0
42 | GGCAGAGCUCAUCAUAGGGAGGCAAAGUGGCUGUCGCUAGACUGCC [A12U C15U C18G U20A G35C] | 0.02
43 | GUCAGAGCUCAACACAGCGUGGCAAAGUAGCGGUGGCUACACUGCC [G2U G29A U32G G40C] | 0
44 | GGCGGAGCUCCACACAGCGUGGCAAAAUGGCUGUGGCUAGACUGCC [A4G A11C G27A] | 0.02
45 | GGCAGAGCUCAACGCAGCGUGGCAAAGUGGCUGCGGCCAGACUGCC [A14G U34C U38C] | 0.07
46 | GGUAGAGCUCAACACUGCGUGGCGAAGUGGCUGUGGCUAGACUGCC [C3U A16U A24G] | 0.01
47 | GGCUGAGCUCAACACAGCGUGGUAAAGUGGCUGUGCCUAGACUGCU [A4U C23U G36C C46U] | 0.02
48 | GGCAGCGCUAAACACAGCCUGACGAAGAGGCUGUGGCUAGAUUGCC [A6C C10A G19C G22A A24G U28A C42U] | 0
49 | GGCAGAGCUCAACACCGCGUGACAAAGUGGCUGCUGCUAGAUUGCC [A16C G22A U34C G35U C42U] | 0.02
50 | GUCAGACCUCCACACAGCGUGGCCAAGUGGCUGCGGAUUGACUGCC [G2U G7C A11C A24C U34C C37A A39U] | 0
51 | GGCAGAGCUUACCCUAGCGUGGCAAAGUGGCUGUGGCUAGACUGCC [C10U A12C A14C C15U] | 0.04
52 | GGCAGAGCUCAACACGGCGGGGCAAAGUGGCUGUGGCUAGAAUGCC [A16G U20G C42A] | 0.09
53 | GGCUGAGCUCAGCAGAGCGUGGCAAAGUGGCUGUGGCUAGACUGCC [A4U A12G C15G] | 0.03
54 | GGCAGAGCUCAACACAGUGUGGCAAAGUGCCUCUGGCUAGACUGCC [C18U G30C G33C] | 0.03
55 | GGCAGAGCUCAACCCAGCGUGGCAAAGUGGCUCUGACUAGACUGCC [A14C G33C G36A] | 0.05
56 | GGAAGAGCUCAACACAGCGUGGUAUAGUGGCUGUGGUUAGACUGUC [C3A C23U A25U C37U C45U] | 0.07
